{"source": "PubChem BioAssay AID1346428", "about": "(National Center for Advancing Translational Sciences (NCATS), 2018)", "note": "Out of some 48,000 compounds screened, about 1,200 (2.5%) were called active. Not shown: some 2% with an inconclusive outcome.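 Rule for the calls: active = activation of at least 60% and not above a set upper limit (about 1 call in 100 departs from these limits); inconclusive = activation of 40% to 60%, or above that upper limit; inactive = activation under 40%.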 This is one part of the list.", "data": [{"biological_target": "Probable G-protein coupled receptor 32 (Homo sapiens) (UniProt O75388)", "sequence (O75388 whole entry, looked up)": "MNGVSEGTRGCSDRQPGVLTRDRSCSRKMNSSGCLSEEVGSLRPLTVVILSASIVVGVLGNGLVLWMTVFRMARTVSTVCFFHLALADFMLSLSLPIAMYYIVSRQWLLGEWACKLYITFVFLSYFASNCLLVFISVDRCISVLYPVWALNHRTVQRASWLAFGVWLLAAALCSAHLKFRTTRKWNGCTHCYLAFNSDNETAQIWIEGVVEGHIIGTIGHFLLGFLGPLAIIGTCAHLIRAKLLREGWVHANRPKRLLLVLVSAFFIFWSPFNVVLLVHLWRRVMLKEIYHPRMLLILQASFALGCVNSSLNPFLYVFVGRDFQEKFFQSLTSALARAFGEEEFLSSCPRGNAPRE", "assay": "qHTS for Agonists of Human Resolvin D1 Receptor DRV1; note: 0% is about no effect", "conditions": "CHO-K1 GPR32 beta-arrestin PathHunter luminescence, 90 min; at 76.9 µM; stronger effect = higher value; zero percent set by DMSO-only wells", "summary_of_the_method": "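CHO-K1 cells stably expressing ProLink-tagged GPR32 and Enzyme Activator-tagged beta-arrestin were seeded at 2,500 cells/well overnight, exposed to compounds for 90 min at 37 °C, then read by beta-Gal complementation chemiluminescence after 1 h detection reagent.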", "values": [{"smiles": "CCOC(=O)c1cc(S(=O)(=O)Nc2ccc(OC)c(Cl)c2)[nH]n1", "activation": "inactive: 6.48%"}, {"smiles": "CCOC(=O)C1(C)C=C(Nc2ccc(C(N)=O)cc2)C(=O)N1c1ccccc1", "note": "(centres undefined)", "activation": "inactive: -7.2%"}, {"smiles": "COc1ccc2c(Sc3ccccc3)c(C(=O)NCc3cccc(OC)c3OC)[nH]c2c1", "activation": "inactive: -12.3%"}, {"smiles": "CCOc1ccc(CCNC(=O)CCCc2nnc3n(CC(C)C)c(=O)c4sccc4n23)cc1", "activation": "inactive: -18.7%"}, {"smiles": "CC(C)OCCCn1c(SCc2cccc(Br)c2)nc2c(sc3ccccc32)c1=O", "activation": "inactive: -2.92%"}, {"smiles": "CN1C(=O)Cc2cc(S(=O)(=O)CCC(=O)Nc3cccc(C(F)(F)F)c3)ccc21", "activation": "inactive: 3.22%"}, {"smiles": "CC(=O)N1c2ccc(S(=O)(=O)NCC3CCC(C(=O)NCCC(C)C)CC3)cc2CC1C", "note": "(centres undefined)", "activation": "inactive: -12.7%"}, {"smiles": "Cc1ccc(OC(=O)c2cc(-c3ccccc3)nc3ccc(C)cc23)cc1", "activation": "inactive: -1.98%"}, {"smiles": "COCCNC(=O)c1ccc2c(c1)N(Cc1cccc(Cl)c1)C(=O)c1ccccc1S2(=O)=O", "activation": "inactive: -32.3%"}, {"smiles": "COc1ccccc1Oc1nc2c(c(=O)n(C)c(=O)n2C)n1Cc1cccc(Br)c1", "activation": "inactive: -5.37%"}, {"smiles": "CC(=O)Nc1ccc(S(=O)(=O)Nc2cccc(-c3ccc(N4CCC(C)CC4)nn3)c2)cc1", "activation": "inactive: 0.251%"}, {"smiles": "COCCCN1C(=O)N(c2ccccc2)C(=O)C1CC(=O)Nc1ccc(F)cc1", "note": "(centres undefined)", "activation": "inactive: -7.08%"}, {"smiles": "Cc1cc(C)c(NC(=O)Cn2nc3c(cc2=O)CCCC3)c(C)c1", "activation": "inactive: 0.105%"}, {"smiles": "O=C(NCc1ccc2c(c1)CCN2C(=O)c1ccc(F)cc1)c1ccc(Br)o1", "activation": "inactive: -11.5%"}, {"smiles": "COc1cc(OC)cc(C(=O)Nc2cc3nn(-c4ccccc4)nc3cc2Cl)c1", "activation": "inactive: -19.2%"}, {"smiles": "CCCS(=O)(=O)c1ncc(Cl)c(C(=O)N(Cc2ccccc2)Cc2ccco2)n1", "activation": "inactive: -15.6%"}, {"smiles": "CCOc1ccc(-c2oc3ccccc3c(=O)c2O)cc1OCC", "activation": "inactive: 15.2%"}, {"smiles": "COc1ccccc1NC(=O)C1=C(C)Nc2c(C(=O)Nc3ccc(F)cc3)cnn2C1c1ccc(Cl)cc1", "note": "(centres undefined)", "activation": "inactive: -11.6%"}, {"smiles": "O=C(Nc1ccc(S(=O)(=O)Nc2ccccc2)cc1)N1CCCC1", "activation": "inactive: 19%"}, {"smiles": "COc1ccccc1NC(=O)N1CC(=O)Nc2sc3c(c2C1c1ccccc1)CCCC3", "note": "(centres undefined)", "activation": "inactive: -2.3%"}, {"smiles": "Nc1ncnc2c1ncn2C1CCCO1", "note": "(centres undefined)", "activation": "inactive: -4.74%"}, {"smiles": "Cn1c(=O)c2c(nc(SCC(=O)Nc3ccc(OC(F)(F)F)cc3)n2Cc2cccc(C(F)(F)F)c2)n(C)c1=O", "activation": "inactive: -7.75%"}, {"smiles": "COc1ccc(-c2noc(-c3ccc(NCc4ccc(C)cc4)c([N+](=O)[O-])c3)n2)cc1OC", "activation": "inactive: 8.23%"}, {"smiles": "O=S1(=O)c2cccc3cccc(c23)N1CCCN1CCN(c2ccc(F)cc2)CC1", "activation": "inactive: -2.33%"}, {"smiles": "Cc1ccc(S(=O)(=O)Nc2cc3c(cc2C)n(C)c(=O)c(=O)n3C)cc1", "activation": "inactive: -3.05%"}, {"smiles": "CCOC(=O)c1c(N)n(-c2ccc(C)c(C)c2)c2nc3ccccc3nc12", "activation": "inactive: 20.5%"}, {"smiles": "Cc1ccc(CSC2=Nc3ccccc3C3=NC(CCC(=O)N4CCN(c5ccccc5)CC4)C(=O)N23)cc1", "note": "(centres undefined)", "activation": "inactive: -27.1%"}, {"smiles": "Cc1cc(NC(=O)N2CC=C(c3c[nH]c4ccccc34)CC2)ccc1Br", "activation": "inactive: -9.14%"}, {"smiles": "O=C(Cn1c(=O)n(-c2ccc(F)cc2)c(=O)c2sc3ccccc3c21)N1CCCC1", "activation": "inactive: -2.55%"}, {"smiles": "CCOC(=O)c1sc2ccccc2c1S(=O)(=O)Nc1c(C)cccc1C", "activation": "inactive: -17.8%"}, {"smiles": "Cn1nc(C(=O)NCc2ccccc2)c2c1-c1ccccc1SC2", "activation": "inactive: -16.8%"}, {"smiles": "Cc1ccc(-c2onc(C)c2C)cc1S(=O)(=O)N1CCCCC1", "activation": "inactive: -1.08%"}, {"smiles": "CCc1nn(CC(=O)NCCc2ccc(OC)cc2OC)c(=O)c2cc3sccc3n12", "activation": "inactive: -17.2%"}, {"smiles": "COc1cccc(CNC(=O)Cn2cc3c(n2)-c2c(oc(C(=O)N4CCCC4)c2C)CC3)c1OC", "activation": "inactive: -11.3%"}, {"smiles": "COc1ccc(-n2nc(C(=O)N3CCC(C)CC3)c3c4ccccc4n(C)c3c2=O)cc1Cl", "activation": "inactive: 3.39%"}, {"smiles": "O=c1[nH]c(=O)c2ccccc2o1", "activation": "inactive: -2.32%"}, {"smiles": "Cc1ccccc1NC(=O)CSc1nc(-c2ccc(F)cc2)c2cccc(C)c2n1", "activation": "inactive: -5.45%"}, {"smiles": "COc1cc(CNC(=O)c2cc(-c3ccccc3)n[nH]2)cc(OC)c1OC", "activation": "inactive: 6.87%"}, {"smiles": "COc1ccc(-c2cc3nc(C)c(CCC(=O)N4CCN(c5cccc(Cl)c5)CC4)c(C)n3n2)c(OC)c1", "activation": "inactive: 3.78%"}, {"smiles": "O=C(NCc1cccs1)c1ccc2c(c1)N(Cc1ccccc1Cl)C(=O)c1ccccc1S2", "activation": "inactive: -12.6%"}, {"smiles": "O=C(CN1C=NS(=O)(=O)c2ccccc21)Nc1ccc(F)cc1", "activation": "inactive: 15.3%"}, {"smiles": "CCOc1ccccc1NC(=O)C(Cc1ccccc1)NS(=O)(=O)c1ccc2c(c1)oc(=O)n2C", "note": "(centres undefined)", "activation": "inactive: -5.9%"}, {"smiles": "CC(C)Cn1c(=O)c2ccccc2n2c(CCC(=O)NCc3ccccc3Cl)nnc12", "activation": "inactive: -4.05%"}, {"smiles": "COc1ccc(-c2cc(C(=O)OCC(=O)c3ccc(C)cc3)c3cccc(Cl)c3n2)cc1", "activation": "inactive: -3.86%"}, {"smiles": "Cc1ccccc1-c1ncnn1-c1sc2c(c1C#N)CCCCC2", "activation": "active: 106%"}, {"smiles": "COc1ccc(CNC(=O)c2cc3cc(C)ccc3n2C)cc1", "activation": "inactive: 15.4%"}, {"smiles": "O=C(CN1CCNCC1)NC1CCCCC1", "activation": "inactive: -24.3%"}, {"smiles": "CC(=O)NCCNC(=O)CCCc1nnc2n(C)c(=O)c3sccc3n12", "activation": "inactive: 7.85%"}, {"smiles": "Cc1sc2c(c1C)c(=O)n(CCc1ccccc1)c(=O)n2Cc1cccc(F)c1", "activation": "inactive: -8.22%"}, {"smiles": "CCCCN(CCCC)C(=O)CN(C)S(=O)(=O)c1ccc2c(c1)c(=O)n(C)c(=O)n2C", "activation": "inactive: 15.6%"}, {"smiles": "CC(Nc1ccc(-c2nc(-c3ccncc3)no2)cc1[N+](=O)[O-])c1ccccc1", "note": "(centres undefined)", "activation": "inactive: 16.6%"}, {"smiles": "O=C(NCc1ccccc1Br)c1ccc2nc(N3CCCCC3)sc2c1", "activation": "inactive: 2.8%"}, {"smiles": "O=C(Nc1cc(F)ccc1F)C1CCN(c2nc3ccccc3n3cccc23)CC1", "activation": "inactive: -1.23%"}, {"smiles": "Cc1ccc(-n2c(=O)c3c(c4cc(C)ccc4n3C)n(CC(=O)NCc3ccccc3Cl)c2=O)cc1", "activation": "inactive: -4.07%"}, {"smiles": "CCCCOC(=O)c1ccc(Nc2ncnc3[nH]ncc23)cc1", "activation": "inactive: 32.3%"}, {"smiles": "COc1ccc2oc(=O)cc(CN3CCN(c4ccc(F)cc4)CC3)c2c1", "activation": "inactive: -18.3%"}, {"smiles": "CCCCNC(=O)C(CC)Sc1nnc(-c2cccc(F)c2)c(-c2cccc(F)c2)n1", "note": "(centres undefined)", "activation": "inactive: -17.8%"}, {"smiles": "COc1ccc(CCC(=O)NC2CC(=O)N(c3ccc(C)cc3)C2)cc1", "note": "(centres undefined)", "activation": "inactive: -0.565%"}, {"smiles": "CCOC(=O)c1ccc(CN(Cc2ccccc2)S(=O)(=O)c2ccc(C)cc2)cc1", "activation": "inactive: -26.2%"}, {"smiles": "Cc1nc2c(C(=O)NCCc3ccc(Cl)cc3)cnn2c(C)c1Cc1c(F)cccc1Cl", "activation": "inactive: -11.2%"}, {"smiles": "CCOC(=O)c1ccc(NC(=O)CN(c2ccc(C)cc2)S(=O)(=O)c2c(C)noc2C)cc1", "activation": "inactive: -4.61%"}, {"smiles": "Cc1cccc(NC(=O)Cn2c(=O)n(-c3ccccc3Cl)c(=O)c3c(C)c(C(=O)N(C)C)sc32)c1", "activation": "inactive: -7.85%"}, {"smiles": "Cc1cc(C)cc(N2CC(c3nc(-c4ccccc4C)no3)CC2=O)c1", "note": "(centres undefined)", "activation": "inactive: -0.904%"}, {"smiles": "CC(=O)Nc1c(C)nn(-c2ccccc2)c1N1CCC(C(=O)NCc2ccc(Cl)cc2)CC1", "activation": "inactive: -18.6%"}, {"smiles": "Cc1cc(OCC(=O)NCC2(N3CCN(C)CC3)CCCCC2)cc(C)c1Cl", "activation": "inactive: -15.2%"}, {"smiles": "COc1ccc(-c2cc(NCc3ccc(F)cc3)n3cnnc3n2)cc1", "activation": "inactive: 4.24%"}, {"smiles": "O=c1[nH]c(=O)n([C@H]2O[C@H](CO)[C@@H](O)[C@@H]2O)cc1/C=C\\Br", "activation": "inactive: -5.01%"}, {"smiles": "O=C(Cc1ccccc1)Nc1sc2c(c1C(=O)Nc1ccccc1Cl)CCC2", "activation": "inactive: 18.9%"}, {"smiles": "Cc1nn(CC(=O)NCCc2ccc(Cl)cc2)c(=O)c2cc3cc(F)ccc3n12", "activation": "inactive: 6.48%"}, {"smiles": "COc1ccc(CNC(=O)Cn2nc(C)c3nn(-c4ccc(Cl)cc4)c(C)c3c2=O)cc1", "activation": "inactive: -3.19%"}, {"smiles": "CCCN1C(=O)C(Cc2nc3ccccc3c(=O)n2CC)c2ccccc21", "note": "(centres undefined)", "activation": "inactive: -29.5%"}, {"smiles": "CCCc1cc(N2CCN(c3cc(Cl)ccc3C)CC2)n2cnnc2n1", "activation": "inactive: 7.26%"}, {"smiles": "Cc1ccc(NC(=O)CCc2nnc3n(CC(C)C)c(=O)c4ccccc4n23)cc1C", "activation": "inactive: -0.413%"}, {"smiles": "Cc1ccc(-n2nc3c(N4CCC(C(=O)N5CCCCC5)CC4)nnc(C)c3c2C)cc1", "activation": "inactive: 2.81%"}, {"smiles": "CCCOc1ccc(N2CC(C(=O)Nc3cccc(Cl)c3Cl)CC2=O)cc1", "note": "(centres undefined)", "activation": "inactive: -28.5%"}, {"smiles": "Cc1ccc2oc(C(=O)Nc3c(C(=O)Nc4ccccc4)oc4ccccc34)cc(=O)c2c1", "activation": "inactive: 7.32%"}, {"smiles": "O=S(=O)(c1ccccc1)c1nnn2c1nc(NCc1cccs1)c1sccc12", "activation": "inactive: 1.44%"}, {"smiles": "Cc1ccc(NC(=O)CCn2cccn2)cc1Cl", "activation": "inactive: -2.82%"}, {"smiles": "CCOc1ccc(CCNC(=O)CN2C(=O)COc3ccc(S(=O)(=O)N4CCC(C)CC4)cc32)cc1", "activation": "inactive: -8.57%"}, {"smiles": "COc1ccc(NC(=O)Cn2c(=O)n(-c3ccccc3)c(=O)c3c4c(sc32)CCCC4)cc1", "activation": "inactive: -2.45%"}, {"smiles": "Cc1ccc(NC2=CC(c3ccccc3F)N(c3ccc(C)cc3)C2=O)cc1", "note": "(centres undefined)", "activation": "inactive: -34.2%"}, {"smiles": "COC(=O)c1c(NC(=O)c2cc3nc(-c4ccc(OC)cc4)cc(C(F)(F)F)n3n2)sc2c1CCCC2", "activation": "inactive: -24.5%"}, {"smiles": "CCCCN(C)c1nnc(NC(=O)Nc2cccc(C(C)=O)c2)s1", "activation": "inactive: -0.924%"}, {"smiles": "CCOc1ccc(Cn2c(=O)oc3ccccc32)cc1", "activation": "inactive: -3.64%"}]}]}
